The text below walks through data of PubChem BioAssay (NCI).

A structure can be active in one record and inactive in another. No stated cut-off is given here; in the data, active means growth inhibition above about 70%; inactive means the rest. For part of its entries the source gives two or more results. The list is limited to them. An entry can have further records. The values listed for one entry are repeated measurements (runs, samples, wells, individuals or studies).

Test [1] in a line: NCI Yeast Anticancer Drug Screen. Data for the rad50 strain (AID 155).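 Further: 0% = growth of vehicle-only cultures of the same strain.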 To be noted: S. cerevisiae rad50 strain growth inhibition; at 50.0 µM; stronger effect = higher value.
Test [2] is described as follows: NCI Yeast Anticancer Drug Screen. Data for the mec2-1 strain (AID 157). To be noted: S. cerevisiae mec2-1 strain, at 50.0 µM, stronger effect = higher value.
Test [3] is described as follows: NCI Yeast Anticancer Drug Screen. Data for the cln2 rad14 strain (AID 165).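 Further: 0% = growth equal to vehicle treated cultures.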 Conditions: S. cerevisiae cln2 rad14 strain, at 50.0 µM, stronger effect = higher value.

Consider `C[C@H]1CCC/C=C/[C@@H]2C[C@H](O)C[C@H]2[C@H](O)/C=C/C(=O)O1`, for which the growth inhibition result in test [1] is “active: 90%, 89.5%, 87.8% and inactive: 5.9% [separate samples]”; in test [2] it was “active: 91.2%, 90.4%, 91.4% and inactive: -9.9% [separate samples]”; in test [3], “active: 89.5%, 88.8%, 88% and inactive: 9.65% [separate samples]”.
